This is one part of the list.
Tests used:
Assay in all cases: glycan array binding signal (z-score within array); higher = stronger binding
Settings in all cases: glycan notation: IUPAC condensed, linker removed
[1] = molecular target: Neu5Ac(a2-6)GlcNAc(b1-4)GlcNAc
How it was run: (§1)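 The Consortium for Functional Glycomics database supplied 3228 glycan arrays, of which those lacking an available protein sequence were dropped. The binding signal, a within-array Z-score, was averaged across arrays of the same protein sequence and across linkers. Negative scores can be read as non-binding.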

[2] = molecular target: Neu5Ac(a2-6)GlcNAc(b1-4)GlcNAc(b1-4)GlcNAc
How it was run: as §1

Neu5Ac(a2-8)Neu5Ac = molecular target: Neu5Ac(a2-8)Neu5Ac
How it was run: as §1

[3] = molecular target: Neu5Ac(a2-8)Neu5Ac(a2-3)Gal(b1-3)GalNAc(b1-4)[Neu5Ac(a2-3)]Gal(b1-4)Glc
How it was run: as §1

[4] = molecular target: Neu5Ac(a2-8)Neu5Ac(a2-3)Gal(b1-3)GalNAc(b1-4)[Neu5Ac(a2-8)Neu5Ac(a2-3)]Gal(b1-4)Glc
How it was run: as §1

[5] = molecular target: Neu5Ac(a2-8)Neu5Ac(a2-3)Gal(b1-4)Glc
How it was run: as §1

[6] = molecular target: Neu5Ac(a2-8)Neu5Ac(a2-3)Gal(b1-4)GlcNAc
How it was run: as §1

[7] = molecular target: Neu5Ac(a2-8)Neu5Ac(a2-3)[Gal(b1-3)GalNAc(b1-4)]Gal(b1-4)Glc
How it was run: as §1

[8] = molecular target: Neu5Ac(a2-8)Neu5Ac(a2-3)[GalNAc(b1-4)]Gal(b1-4)Glc
How it was run: as §1

[9] = molecular target: Neu5Ac(a2-8)Neu5Ac(a2-8)Neu5Ac
How it was run: as §1

[10] = molecular target: Neu5Ac(a2-8)Neu5Ac(a2-8)Neu5Ac(a2-3)Gal(b1-4)Glc
How it was run: as §1

[11] = molecular target: Neu5Ac(a2-8)Neu5Ac(a2-8)Neu5Ac(a2-3)[Gal(b1-3)GalNAc(b1-4)]Gal(b1-4)Glc
How it was run: as §1

[12] = molecular target: Neu5Ac(a2-8)Neu5Ac(a2-8)Neu5Ac(a2-3)[GalNAc(b1-4)]Gal(b1-4)Glc
How it was run: as §1

[13] = molecular target: Neu5Ac(a2-8)Neu5Ac(a2-8)Neu5Ac(a2-8)Neu5Ac(a2-3)[GalNAc(b1-4)]Gal(b1-4)Glc
How it was run: as §1

[14] = molecular target: Neu5Ac(a2-8)Neu5Gc(a2-3)Gal(b1-4)GlcNAc
How it was run: as §1

[15] = molecular target: Neu5Ac(b2-6)Gal(b1-4)GlcNAc
How it was run: as §1

Neu5Ac(b2-6)GalNAc = molecular target: Neu5Ac(b2-6)GalNAc
How it was run: as §1

[16] = molecular target: Neu5Ac9Ac(a2-3)Gal(b1-3)GlcNAc
How it was run: as §1

[17] = molecular target: Neu5Ac9Ac(a2-3)Gal(b1-4)GlcNAc
How it was run: as §1

[18] = molecular target: Neu5Ac9Ac(a2-6)Gal(b1-4)GlcNAc
How it was run: as §1

[19] = molecular target: Neu5Gc(a2-3)Gal(b1-3)GlcNAc
How it was run: as §1

[20] = molecular target: Neu5Gc(a2-3)Gal(b1-3)[Fuc(a1-4)]GlcNAc
How it was run: as §1

Neu5Gc(a2-3)Gal(b1-4)Glc = molecular target: Neu5Gc(a2-3)Gal(b1-4)Glc
How it was run: as §1

[21] = molecular target: Neu5Gc(a2-3)Gal(b1-4)GlcNAc
How it was run: as §1

[22] = molecular target: Neu5Gc(a2-3)Gal(b1-4)GlcNAc(b1-3)Gal(b1-4)GlcNAc(b1-2)Man(a1-3)[Neu5Gc(a2-3)Gal(b1-4)GlcNAc(b1-3)Gal(b1-4)GlcNAc(b1-2)Man(a1-6)]Man(b1-4)GlcNAc(b1-4)GlcNAc
How it was run: as §1

[23] = molecular target: Neu5Gc(a2-3)Gal(b1-4)[Fuc(a1-3)]GlcNAc
How it was run: as §1

[24] = molecular target: Neu5Gc(a2-6)Gal(b1-4)GlcNAc
How it was run: as §1

Neu5Gc(a2-6)GalNAc = molecular target: Neu5Gc(a2-6)GalNAc
How it was run: as §1

[25] = molecular target: Neu5Gc(a2-8)Neu5Ac(a2-3)Gal(b1-4)GlcNAc
How it was run: as §1

[26] = molecular target: Neu5Gc(a2-8)Neu5Gc(a2-3)Gal(b1-4)GlcNAc
How it was run: as §1

[27] = molecular target: Neu5Gc(a2-8)Neu5Gc(a2-3)Gal(b1-4)GlcNAc(b1-3)Gal(b1-4)GlcNAc
How it was run: as §1

[28] = molecular target: Neu5Gc(a2-8)Neu5Gc(a2-6)Gal(b1-4)GlcNAc
How it was run: as §1

[29] = molecular target: Neu5Gc(b2-6)Gal(b1-4)GlcNAc
How it was run: as §1

B1: Siglec-E (Mus musculus), Q91Y57 (protein)
chain: MLLLLLLLLLWGIKGVEGQNPQEVFTLNVERKVVVQEGLCVLVPCNFSYLKKRLTDWTDSDPVHGFWYREGTDRRKDSIVATNNPIRKAVKETRNRFFLLGDPWRNDCSLNIREIRKKDAGLYFFRLERGKTKYNYMWDKMTLVVTALTNTPQILLPETLEAGHPSNLTCSVPWDCGWTAPPIFSWTGTSVSFLSTNTTGSSVLTITPQPQDHGTNLTCQVTLPGTNVSTRMTTRLNVSYAPKNLTVTIYQGADSVSTILKNGSSLPISEGQSLRLICSTDSYPPANLSWSWDNLTLCPSKLSKPGLLELFPVHLKHGGVYTCQAQHALGSQHISLSLSPQSSATLSEMMMGTFVGSGVTALLFLSVCILLLAVRSYRRKPARPAVVAPHPDALKVSVSQNPLVESQADDSSEPLPSILEAAPSSTEEEIHYATLSFHEMKPMNLWGQQDTTTEYSEIKFPQRTAWP
- glycan array binding signal (z-score) [1]: -0.619
- glycan array binding signal (z-score) [2]: -0.827
- glycan array binding signal (z-score) (Neu5Ac(a2-8)Neu5Ac): -0.266
- glycan array binding signal (z-score) [3]: -0.387
- glycan array binding signal (z-score) [4]: 0.342
- glycan array binding signal (z-score) [5]: -0.267
- glycan array binding signal (z-score) [6]: -0.57
- glycan array binding signal (z-score) [7]: 0.53
- glycan array binding signal (z-score) [8]: -0.369
- glycan array binding signal (z-score) [9]: -0.511
- glycan array binding signal (z-score) [10]: -0.105
- glycan array binding signal (z-score) [11]: -0.374
- glycan array binding signal (z-score) [12]: -0.43
- glycan array binding signal (z-score) [13]: -0.003
- glycan array binding signal (z-score) [14]: -0.419
- glycan array binding signal (z-score) [15]: -0.509
- glycan array binding signal (z-score) (Neu5Ac(b2-6)GalNAc): -0.402
- glycan array binding signal (z-score) [16]: 0.055
- glycan array binding signal (z-score) [17]: -0.311
- glycan array binding signal (z-score) [18]: -0.429
- glycan array binding signal (z-score) [19]: -0.188
- glycan array binding signal (z-score) [20]: 0.48
- glycan array binding signal (z-score) (Neu5Gc(a2-3)Gal(b1-4)Glc): 0.16
- glycan array binding signal (z-score) [21]: -0.227
- glycan array binding signal (z-score) [22]: -0.44
- glycan array binding signal (z-score) [23]: -0.451
- glycan array binding signal (z-score) [24]: 0.284
- glycan array binding signal (z-score) (Neu5Gc(a2-6)GalNAc): 0.162
- glycan array binding signal (z-score) [25]: -0.472
- glycan array binding signal (z-score) [26]: -0.578
- glycan array binding signal (z-score) [27]: -0.554
- glycan array binding signal (z-score) [28]: -0.692
- glycan array binding signal (z-score) [29]: 0.02

Source: the supplement of paper PMC8728848
